According to PubChem BioAssay (NCATS):
Values joined by “and” are separate entries in the source; they are usually repeats but may differ in a detail not shown here. Equal values may be shown once. This list was built around the results that the source calls inconclusive (neither active nor inactive); the mix of calls is not that of the screen. Potencies of inconclusive entries are doubtful fits and often do not repeat. Active and inactive are the calls of the source. The call rests on the fitted dose curve; in most records, active means well fitted inhibition curve with a large enough effect; inconclusive means small, poorly fitted or top-dose-only effect; inactive means flat fitted curve, though single readings scatter.

test system: Zika virus NS2B-NS3 protease; assay: Primary screen GU AMC qHTS for Zika virus inhibitors (AID 1347154); settings: Zika NS2B-NS3 unlinked protease, AMC fluorogenic substrate; series mostly up to 54.1 µM; further: nearly all actives have a fitted effect of over 70% in size
Source text: Avindra Nath, Ph.D., National Institute of Neurological Disorders and Stroke (NINDS), Bethesda, MD
Radhakrishnan Padmanabhan, Ph.D., Georgetown University (GU), Washington D.C.
Zika Virus causes congenital defects, including microcephaly and is associated with Guillain-Barre syndrome, eningoencephalitis and myelitis in infected adult. […] Using a target-based approach, we hope to establish a screening paradigm to uncover novel, cell-active NS2B-NS3 protease (Zika Virus) specific inhibitors from NCATS' collection of small molecules using qHTS.
Early Translation Branch (ETB)
National Center for Advancing Translational Sciences (NCATS), Rockville, MD
National Institute of Health (NIH), Bethesda, Maryland
Padmanabhan lab provided the NS2B hydrophilic domain and NS3 protease domain in a noncovalent complex used for the unlinked assay. Control compound aprotinin is obtained from Thermo Scientific (#78432; Waltham, Massachusetts). NS2B-NS3 AMC substrate (Bz-Nle-Lys-Arg-Arg-AMC; Nle-KRR-AMC) purchased from Bachem (#I-1995; Torrance, CA). Ac-VKTGKR-AMC purchased from Genscript or Bachem, Ac-FAAGKR-AMC purchased from Genscript, Ac-GLVKRR-AMC purchased from Genscript, Ac-LKKR-AMC purchased from Genscript.
GU AMC unlinked NS2B-NS3 protease qHTS protocol
Briefly, 3 microL of Zika virus unlinked NS2B-NS3 protease (25 nM for linked final concentration), in assay buffer (10 mM Tris-HCl pH 8.0 with 0.01% Tween 20) was dispensed into a 1,536-well solid-bottom black plate (Greiner Bio One, Monroe, NC). […] Plates were then read immediately on a ViewLux High-throughput CCD imager (PerkinElmer, Waltham, MA) equipped with standard UV fluorescence optics (340(30) nm excitation, 450(20) nm emission) then incubated (room temperature, protected from light) for 15 minutes (~20% conversion). The change in fluorescence intensity over the 15-minute reaction period was normalized against no-inhibitor and no-enzyme controls and the resulting percent inhibition data were fitted to a 4-parameter Hill equation. Aprotinin was used as the intraplate control.
Potency means the concentration at half of the fitted maximal effect; tags describe the fitted curve by direction and shape.

Q: Which Potency does the source give for `O=[N+]([O-])c1ccc(Nc2ccccc2-c2ccccc2)c2nonc12` here?
A: inconclusive: 27.1 µM [inhibitor, single point]

Q: How did the Potency turn out when `COc1cc2nc(-c3ccc(N4CCN(C)CC4)cc3)nc(NCCN3CCOCC3)c2cc1OC` was run?
A: inconclusive: 12.1 µM [inhibitor, full curve]

Q: With `Cc1ccc(C(=O)Nc2ccc(S(=O)(=O)O)c3cc(S(=O)(=O)O)cc(S(=O)(=O)O)c23)cc1NC(=O)c1cccc(NC(=O)Nc2cccc(C(=O)Nc3cc(C(=O)Nc4ccc(S(=O)(=O)O)c5cc(S(=O)(=O)O)cc(S(=O)(=O)O)c45)ccc3C)c2)c1` as the compound, how does the Potency read?
A: inconclusive: 1.5 µM [inhibitor, full curve] and inconclusive: 242 nM [inhibitor, full curve] and active: 5.01 µM

Q: How did the Potency turn out when `Oc1ccc(C2CCN(c3ccnc4ccccc34)CC2)cc1O` was run?
A: inconclusive: 42.9 µM [inhibitor, single point]

Q: `Cc1nc2ccccc2n1Cc1ccc(Cl)cc1` was tested. Which Potency did it give?
A: inactive

Q: For `Oc1ccc(/C=C/c2cc(O)cc(O)c2)cc1`, which Potency is on record?
A: inconclusive: 10 µM [inhibitor, single point] and inconclusive: 25.6 µM [inhibitor, partial curve]

Q: `CN(C)c1cc(NC(=O)CNC(C)(C)C)c(O)c2c1C[C@@H]1C[C@H]3[C@H](N(C)C)C(=O)C(C(N)=O)=C(O)[C@@]3(O)C(=O)C1=C2O` was tested. Which Potency did it give?
A: inconclusive: 12.6 µM [inhibitor, partial curve]

Q: Which Potency does the source give for `CC(C)OC(=O)c1cc(C(=O)OC(C)C)cc([N+](=O)[O-])c1` here?
A: inconclusive: 67.4 µM [inhibitor, partial curve, poor fit]

Q: How did the Potency turn out when `O=C(C=Cc1ccc(O)cc1)c1ccc(O)cc1O` was run?
A: inconclusive: 27.1 µM [inhibitor, partial curve, poor fit]

Q: Which Potency does the source give for `CCn1cc(C(=O)O)c(=O)c2cc(F)c(N3CCNC(C)C3)c(F)c21` (stereo not given) here?
A: inconclusive: 16.1 µM [inhibitor, partial curve] and active: 29.9 µM

Q: How did the Potency turn out when `NC(=O)c1cccc2[nH]c(-c3ccc([C@H]4CCCN4)cc3F)nc12` was run?
A: active: 24.1 µM

Q: `Cc1ccc(S(=O)(=O)NC(=O)NC2CCCCC2)cc1` was tested. Which Potency did it give?
A: inactive

Q: For `O=C(Nc1cccc(C(=O)Nc2ccc(S(=O)(=O)O)c3cc(S(=O)(=O)O)cc(S(=O)(=O)O)c23)c1)Nc1cccc(C(=O)Nc2ccc(S(=O)(=O)O)c3cc(S(=O)(=O)O)cc(S(=O)(=O)O)c23)c1`, which Potency is on record?
A: inconclusive: 13.4 µM [inhibitor, partial curve]

Q: `COc1cc(Oc2ccnc3cc(OC)c(OC)cc23)ccc1NC(=O)NC(C)c1nccs1` (stereo not given) was tested. Which Potency did it give?
A: inconclusive: 15.2 µM [inhibitor, partial curve]

Q: Which Potency does the source give for `CS(=O)(=O)c1ccc(-c2cn3ccccc3n2)cc1` here?
A: inconclusive: 0.256 µM [inhibitor, full curve, poor fit]

Q: For `O=C(C=CC=Cc1ccc2c(c1)OCO2)N1CCCCC1`, which Potency is on record?
A: inconclusive: 37.7 µM [inhibitor, partial curve, poor fit]

Q: Which Potency does the source give for `O=C(Nc1ccccc1)Nc1ccc(-c2ccc(C(=O)[C@H]3CCC[C@H]3C(=O)O)cc2)cc1` here?
A: inconclusive: 19.2 µM [inhibitor, partial curve]

Q: How did the Potency turn out when `COc1ccc(-c2cc(=O)c3c(O)cc(O)cc3o2)cc1O` was run?
A: inactive

Q: `CC(C)OC(=O)CCCC=CC[C@@H]1[C@H](C=C[C@@H](O)COc2cccc(C(F)(F)F)c2)[C@H](O)C[C@@H]1O` was tested. Which Potency did it give?
A: inconclusive: 17.1 µM [inhibitor, partial curve, poor fit]

Q: Which Potency does the source give for `O=C(O)c1cc(O)c2c(c1)C(=O)c1cccc(O)c1C2=O` here?
A: active: 24.8 µM

Q: `Cc1ccnc(NS(=O)(=O)c2ccc(NC(=O)Nc3ccc(S(=O)(=O)Nc4nccc(C)n4)cc3)cc2)n1` was tested. Which Potency did it give?
A: active: 24.1 µM

Q: For `N#Cc1ccc(NC(=O)Nc2ccccc2Br)c2n[nH]nc12`, which Potency is on record?
A: inconclusive: 19.2 µM [inhibitor, partial curve]

Q: With `Nc1ccc(O)c([N+](=O)[O-])c1` as the compound, how does the Potency read?
A: inconclusive: 36.9 µM [inhibitor, partial curve]

Q: Which Potency does the source give for `C=CC(=O)Nc1cc2c(Nc3ccc(F)c(Cl)c3)ncnc2cc1C#CC(C)(C)N1CCN(C)CC1` here?
A: inconclusive: 10.8 µM [inhibitor, single point]

Q: `O=c1c(-c2ccc(O)cc2)coc2cc(O)ccc12` was tested. Which Potency did it give?
A: inconclusive: 4.23 µM [inhibitor, full curve, poor fit] and inconclusive: 26.7 µM [inhibitor, single point] and inconclusive: 215 nM [inhibitor, full curve]

Q: `Nc1ccc(O)c(C(=O)O)c1` was tested. Which Potency did it give?
A: inconclusive: 28.7 µM [inhibitor, partial curve]

Q: For `C#CCN(C)Cc1ccccc1`, which Potency is on record?
A: inactive

Q: Which Potency does the source give for `COc1ccnc2c1CCCCC2S(=O)c1nc2ccccc2[nH]1` (stereo not given) here?
A: active: 35.5 µM

Q: Which Potency does the source give for `OCc1cc(C(O)CNCCCCCCOCCCCc2ccccc2)ccc1O` (stereo not given) here?
A: inconclusive: 28.7 µM [inhibitor, partial curve]

Q: How did the Potency turn out when `CCN(CC)CCCC(C)Nc1c2ccc(Cl)cc2nc2ccc(OC)cc12` (stereo not given) was run?
A: inconclusive: 35.5 µM [inhibitor, partial curve, poor fit]

Q: With `Cc1oncc1C(=O)Nc1ccc(C(F)(F)F)cc1` as the compound, how does the Potency read?
A: inactive

Q: Which Potency does the source give for `Cc1cc(OCCCc2c(C(=O)O)n(Cc3cccnc3)c3c(-c4c(COc5ccc(N6CCN([S+](C)(=O)[O-])CC6)cc5)nn(C)c4C)cccc23)cc(C)c1Cl` here?
A: active: 21.5 µM

Q: `O=c1cc(-c2ccccc2)oc2cc(O)cc(O)c12` was tested. Which Potency did it give?
A: inconclusive: 3.77 µM [inhibitor, partial curve]

Q: Which Potency does the source give for `O=C1NC(=O)C(=Cc2ccc(-c3ccc(F)cc3O)o2)S1` here?
A: inconclusive: 5.41 µM [inhibitor, partial curve]

Q: For `CCCCC/C=C\C/C=C\CCCCCCCC(=O)NC(C)c1ccccc1` (stereo not given), which Potency is on record?
A: inconclusive: 28.7 µM [inhibitor, partial curve, poor fit]

Q: `O=C(NOCC1CC1)c1ccc(F)c(F)c1Nc1ccc(I)cc1Cl` was tested. Which Potency did it give?
A: inconclusive: 178 nM [inhibitor, full curve] and inconclusive: 3.41 µM [inhibitor, full curve, poor fit]

Q: For `CNCC[C@H](Oc1cccc2ccccc12)c1cccs1`, which Potency is on record?
A: inconclusive: 27.1 µM [inhibitor, single point]

Q: Which Potency does the source give for `Cc1ccccc1C(C(=O)NC1CCCC1)N(C(=O)Cn1cnc2ccccc21)c1cccc(F)c1` (stereo not given) here?
A: inconclusive: 4.82 µM [inhibitor, partial curve, poor fit]

Q: How did the Potency turn out when `CNCc1ccc(-c2[nH]c3cc(F)cc4c3c2CCNC4=O)cc1` was run?
A: active: 24.1 µM

Q: Which Potency does the source give for `Cc1ccc(F)c(NC(=O)Nc2ccc(-c3cccc4[nH]nc(N)c34)cc2)c1` here?
A: inconclusive: 4.82 µM [inhibitor, partial curve]
